Our source for the binding signal values is publication PMC6451091.

This is one part of the list. For part of these data: At the low end of the ranking the order means little. For part of these data: Measured with an extract: partners may take part in the binding.

For the first experiment, the target named is PU.1 (IVT) (UniProt P17947). As to the kind of experiment: protein-binding microarray (PBM). The following applies: 20 mM HEPES pH 7.9, 100 mM NaCl, 1 mM DTT, 0.2 mg/mL BSA, 0.02% Triton X-100, 2% milk, 0.4 mg/mL salmon testes DNA; 1 h; temperature not stated; high values mean tight binding; double strand, one strand shown; sequences stand for … in GCCTAGCAC…GTGCTAGGTCTTGATTCGCTTGACGCTGCTG
Regarding CCGAGGAGGAAGTGGCTTAG, the binding signal is 4.39 z-score.
The same measure, in the same setting: under CAAATGAAGAACTGATGCGG stands 1.21 z-score.
The same measure, in the same setting: under CAAAAGAAGAAGTGCTGGAT stands 3.25 z-score.
Still for that read-out and setting: under GAGAAGAGGAAGTCCCCATT stands 6.15 z-score; under GAAGTGAGGAAGTGTGGCTG, 3.34 z-score; under CAAGAGAGGAAGTGACATTT, 5.45 z-score.
GAAGAAGGGAAGTACTGTGG came in with a binding signal of 3.75 z-score.
Consider AAAAAAAGGACCTGGCTAGA, for which the binding signal is -0.268 z-score.
Still for that read-out and setting: for GGAGACAGGAAGTGACTTGT the value was 3.62 z-score; for CAAATGAGGAACCGATGCGG, 4.69 z-score; for TAAAACAGGAAGTGTACTCT, 7.45 z-score.
As for GCATAAAGGAAGTGGTTATG, the binding signal came to 3.06 z-score.
Same read-out and setting: for GAGGTGGGGAAGTGCAACAT the value was 2.93 z-score; for CTATTCAGGAAGTGGCAATT, 2.71 z-score; for AGAAAAGGGAAGTGGGGAAG, 6.34 z-score.
On the same count and under the same terms, under AAATAAAGGAAGTGAAACTC stands 4.59 z-score; under TGAAAGAGGAAGTGCAACTA, 7.43 z-score; under CCCAAGAGGAAGTGGTAGGC, 4.34 z-score.
Same read-out and setting: under GTGGGAGGGAAGTGAGGCTC stands 2.25 z-score; under AAAAAAAGCAACTGGCTAGA, -0.443 z-score.
CAAAAGCAGAAGTGAGCTTT: the binding signal worked out at 5.61 z-score.
On the same count and under the same terms, under TTTTAGAGGAACTGAAAAAC stands 3.06 z-score; under CAAAAAGGGAAGTGAGGAAG, 6.17 z-score; under GGAATAGGGAAGTGGCCTGT, 6.32 z-score.
The same measure, in the same setting: under GCCAAGAGGAAGTCTACAAA stands 3.73 z-score; under TGCAGAGGGAAGTGCCTGGG, 2.62 z-score.
GAAAAGGGGAACTGCTGAAT returned a binding signal of 6.33 z-score.
Still for that read-out and setting: for AAAAAAAGGAAGTGGTAAAC the value was 6.51 z-score.
GATAAGAGGTAGTCCTCTGT yielded a binding signal of 0.495 z-score.
Still for that read-out and setting: for CTGTTGGGGAAGTGGAGAGG the value was 2.58 z-score; for ACAAAAAGGAACGGTGCCCC, -0.22 z-score; for CAAATGGGGAACTGATGCGG, 4.64 z-score.
Same read-out and setting: for TTTAAAGGGAAGTGGCTGTA the value was 3.74 z-score.
ACTAAAAGGAACTGTGCCCC showed a binding signal of 0.777 z-score.
Same read-out and setting: under GATGGGAGGAAGTGTTTGAG stands 3.32 z-score; under TAGAGGAGGAAGTGCAAACC, 3.94 z-score.
On the same count and under the same terms, under TAAGAAGGGAAGTGAACTAA stands 3.45 z-score; under GAAAACAGTAAGTCCCATAG, 0.394 z-score.
AAAAAGCGGAAGTGCAAAAG came in with a binding signal of 8.5 z-score.
As for AAAATGAGGAAGTGAGCTAA, the binding signal was 7.94 z-score.

A further experiment addresses PU.1 (endogenous, THP-1 nuclear extract) (UniProt P17947). Description: nuclear extract protein-binding microarray (nextPBM). To be noted: 20 mM HEPES pH 7.9, 100 mM NaCl, 1 mM DTT, 0.2 mg/mL BSA, 0.02% Triton X-100, 2% milk, 0.4 mg/mL salmon testes DNA; 1 h; temperature not stated; high values mean tight binding; double strand, one strand shown; sequences stand for … in GCCTAGCAC…GTGCTAGGTCTTGATTCGCTTGACGCTGCTG
Sequence CCGAGGAGGAAGTGGCTTAG gave a binding signal of 4.84 z-score.
Still for that read-out and setting: under CAAATGAAGAACTGATGCGG stands 1.08 z-score; under CAAAAGAAGAAGTGCTGGAT, 3.52 z-score.
Turning to GAGAAGAGGAAGTCCCCATT, the binding signal was 6.4 z-score.
The same measure, in the same setting: under GAAGTGAGGAAGTGTGGCTG stands 2.98 z-score.
The same measure, in the same setting: under CAAGAGAGGAAGTGACATTT stands 5.21 z-score; under GAAGAAGGGAAGTACTGTGG, 3.29 z-score; under AAAAAAAGGACCTGGCTAGA, -0.407 z-score.
The same measure, in the same setting: for GGAGACAGGAAGTGACTTGT the value was 3.96 z-score; for CAAATGAGGAACCGATGCGG, 5.43 z-score.
TAAAACAGGAAGTGTACTCT yielded a binding signal of 7.02 z-score.
Same read-out and setting: for GCATAAAGGAAGTGGTTATG the value was 2.91 z-score; for GAGGTGGGGAAGTGCAACAT, 2.7 z-score.
In the case of CTATTCAGGAAGTGGCAATT, the binding signal came to 2.84 z-score.
Same read-out and setting: under AGAAAAGGGAAGTGGGGAAG stands 6.5 z-score.
For the sequence AAATAAAGGAAGTGAAACTC, the binding signal worked out at 6.85 z-score.
Same read-out and setting: under TGAAAGAGGAAGTGCAACTA stands 7.1 z-score.
Still for that read-out and setting: for CCCAAGAGGAAGTGGTAGGC the value was 5.47 z-score; for GTGGGAGGGAAGTGAGGCTC, 2.32 z-score.
Still for that read-out and setting: for AAAAAAAGCAACTGGCTAGA the value was -0.0508 z-score; for CAAAAGCAGAAGTGAGCTTT, 6.56 z-score.
In turn, TTTTAGAGGAACTGAAAAAC displayed a binding signal of 3.04 z-score.
Turning to CAAAAAGGGAAGTGAGGAAG, the binding signal came out at 6.64 z-score.
For the sequence GGAATAGGGAAGTGGCCTGT, the binding signal was 6.74 z-score.
Consider GCCAAGAGGAAGTCTACAAA, for which the binding signal was determined as 3.49 z-score.
Same read-out and setting: under TGCAGAGGGAAGTGCCTGGG stands 2.87 z-score; under GAAAAGGGGAACTGCTGAAT, 6.61 z-score.
AAAAAAAGGAAGTGGTAAAC returned a binding signal of 6.53 z-score.
As for GATAAGAGGTAGTCCTCTGT, the binding signal amounted to 1.21 z-score.
The same measure, in the same setting: for CTGTTGGGGAAGTGGAGAGG the value was 2.51 z-score; for ACAAAAAGGAACGGTGCCCC, 0.411 z-score.
On the same count and under the same terms, for CAAATGGGGAACTGATGCGG the value was 5.17 z-score.
Same read-out and setting: for TTTAAAGGGAAGTGGCTGTA the value was 3.96 z-score.
For the sequence ACTAAAAGGAACTGTGCCCC, the binding signal came to 1.38 z-score.
On the same count and under the same terms, for GATGGGAGGAAGTGTTTGAG the value was 2.77 z-score.
TAGAGGAGGAAGTGCAAACC: the binding signal came out at 4.33 z-score.
Same read-out and setting: under TAAGAAGGGAAGTGAACTAA stands 2.87 z-score.
The same measure, in the same setting: under GAAAACAGTAAGTCCCATAG stands -0.145 z-score.
The same measure, in the same setting: for AAAAAGCGGAAGTGCAAAAG the value was 7.35 z-score; for AAAATGAGGAAGTGAGCTAA, 7.38 z-score.

The next experiment concerns the target T1, FLI1 (endogenous, THP-1 nuclear extract) (UniProt Q01543).
T1 sequence: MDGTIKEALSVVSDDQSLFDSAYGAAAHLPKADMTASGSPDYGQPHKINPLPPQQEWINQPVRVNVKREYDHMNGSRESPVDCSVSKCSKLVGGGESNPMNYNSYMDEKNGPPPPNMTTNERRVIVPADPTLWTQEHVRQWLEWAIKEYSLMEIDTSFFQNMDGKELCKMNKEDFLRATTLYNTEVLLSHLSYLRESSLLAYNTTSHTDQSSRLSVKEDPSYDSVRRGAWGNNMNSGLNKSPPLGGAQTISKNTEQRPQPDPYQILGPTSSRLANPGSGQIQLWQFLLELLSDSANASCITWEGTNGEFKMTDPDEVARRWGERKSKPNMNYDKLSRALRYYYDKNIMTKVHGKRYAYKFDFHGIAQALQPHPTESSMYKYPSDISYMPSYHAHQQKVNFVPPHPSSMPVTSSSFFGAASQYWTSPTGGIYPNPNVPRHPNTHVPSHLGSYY
The description is as above. The following applies: 20 mM HEPES pH 7.9, 100 mM NaCl, 1 mM DTT, 0.2 mg/mL BSA, 0.02% Triton X-100, 2% milk, 0.4 mg/mL salmon testes DNA; 1 h; temperature not stated; high values mean tight binding; double strand, one strand shown; sequences stand for … in GCCTAGCAC…GTGCTAGGTCTTGATTCGCTTGACGCTGCTG
CCGAGGAGGAAGTGGCTTAG showed a binding signal of 2.92 z-score.
The same measure, in the same setting: for CAAATGAAGAACTGATGCGG the value was -0.147 z-score; for CAAAAGAAGAAGTGCTGGAT, 1.12 z-score; for GAGAAGAGGAAGTCCCCATT, 2.85 z-score.
The same measure, in the same setting: under GAAGTGAGGAAGTGTGGCTG stands 1.73 z-score.
Same read-out and setting: under CAAGAGAGGAAGTGACATTT stands 3.51 z-score.
Turning to GAAGAAGGGAAGTACTGTGG, the binding signal came to 1.83 z-score.
On the same count and under the same terms, for AAAAAAAGGACCTGGCTAGA the value was -0.226 z-score; for GGAGACAGGAAGTGACTTGT, 5.39 z-score.
For the sequence CAAATGAGGAACCGATGCGG, the binding signal was 0.985 z-score.
On the same count and under the same terms, for TAAAACAGGAAGTGTACTCT the value was 5.55 z-score; for GCATAAAGGAAGTGGTTATG, 2.43 z-score; for GAGGTGGGGAAGTGCAACAT, 1.3 z-score.
Same read-out and setting: for CTATTCAGGAAGTGGCAATT the value was 3.78 z-score.
Same read-out and setting: under AGAAAAGGGAAGTGGGGAAG stands 2.5 z-score; under AAATAAAGGAAGTGAAACTC, 3.54 z-score; under TGAAAGAGGAAGTGCAACTA, 4.24 z-score.
As to CCCAAGAGGAAGTGGTAGGC, the binding signal was found to be 2.92 z-score.
The same measure, in the same setting: for GTGGGAGGGAAGTGAGGCTC the value was 1.31 z-score; for AAAAAAAGCAACTGGCTAGA, -0.634 z-score; for CAAAAGCAGAAGTGAGCTTT, 2.4 z-score.
Same read-out and setting: for TTTTAGAGGAACTGAAAAAC the value was 1.01 z-score.
Same read-out and setting: for CAAAAAGGGAAGTGAGGAAG the value was 3.3 z-score.
Consider GGAATAGGGAAGTGGCCTGT, for which the binding signal was 2.51 z-score.
Same read-out and setting: for GCCAAGAGGAAGTCTACAAA the value was 2.21 z-score; for TGCAGAGGGAAGTGCCTGGG, 1.38 z-score.
Still for that read-out and setting: under GAAAAGGGGAACTGCTGAAT stands 2.25 z-score.
Same read-out and setting: under AAAAAAAGGAAGTGGTAAAC stands 2.86 z-score; under GATAAGAGGTAGTCCTCTGT, -0.249 z-score.
Sequence CTGTTGGGGAAGTGGAGAGG showed a binding signal of 1.21 z-score.
Still for that read-out and setting: under ACAAAAAGGAACGGTGCCCC stands -0.0827 z-score; under CAAATGGGGAACTGATGCGG, 1.11 z-score.
Same read-out and setting: under TTTAAAGGGAAGTGGCTGTA stands 2.02 z-score; under ACTAAAAGGAACTGTGCCCC, 0.483 z-score; under GATGGGAGGAAGTGTTTGAG, 2.76 z-score.
The same measure, in the same setting: for TAGAGGAGGAAGTGCAAACC the value was 2.68 z-score; for TAAGAAGGGAAGTGAACTAA, 1.61 z-score.
For GAAAACAGTAAGTCCCATAG, the binding signal was -0.0836 z-score.
As to AAAAAGCGGAAGTGCAAAAG, the binding signal came out at 5.08 z-score.
Still for that read-out and setting: for AAAATGAGGAAGTGAGCTAA the value was 3.68 z-score.
